The campaign covered roughly 310,000 compounds. About 14,000 (4.5%) showed an effect of 50% or more. Effects have a minus sign here. This is one part of the list.
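Also: peak tail current of the secondary pulse compared with the same well before compound.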

The target of the test is human ether-à-go-go-related gene (hERG) potassium channel (human, UniProt Q12809). The experiment in a line: primary screen, population patch clamp on CHO cells stably expressing hERG.
human ether-à-go-go-related gene (hERG) potassium channel, sequence (Q12809 whole entry, looked up): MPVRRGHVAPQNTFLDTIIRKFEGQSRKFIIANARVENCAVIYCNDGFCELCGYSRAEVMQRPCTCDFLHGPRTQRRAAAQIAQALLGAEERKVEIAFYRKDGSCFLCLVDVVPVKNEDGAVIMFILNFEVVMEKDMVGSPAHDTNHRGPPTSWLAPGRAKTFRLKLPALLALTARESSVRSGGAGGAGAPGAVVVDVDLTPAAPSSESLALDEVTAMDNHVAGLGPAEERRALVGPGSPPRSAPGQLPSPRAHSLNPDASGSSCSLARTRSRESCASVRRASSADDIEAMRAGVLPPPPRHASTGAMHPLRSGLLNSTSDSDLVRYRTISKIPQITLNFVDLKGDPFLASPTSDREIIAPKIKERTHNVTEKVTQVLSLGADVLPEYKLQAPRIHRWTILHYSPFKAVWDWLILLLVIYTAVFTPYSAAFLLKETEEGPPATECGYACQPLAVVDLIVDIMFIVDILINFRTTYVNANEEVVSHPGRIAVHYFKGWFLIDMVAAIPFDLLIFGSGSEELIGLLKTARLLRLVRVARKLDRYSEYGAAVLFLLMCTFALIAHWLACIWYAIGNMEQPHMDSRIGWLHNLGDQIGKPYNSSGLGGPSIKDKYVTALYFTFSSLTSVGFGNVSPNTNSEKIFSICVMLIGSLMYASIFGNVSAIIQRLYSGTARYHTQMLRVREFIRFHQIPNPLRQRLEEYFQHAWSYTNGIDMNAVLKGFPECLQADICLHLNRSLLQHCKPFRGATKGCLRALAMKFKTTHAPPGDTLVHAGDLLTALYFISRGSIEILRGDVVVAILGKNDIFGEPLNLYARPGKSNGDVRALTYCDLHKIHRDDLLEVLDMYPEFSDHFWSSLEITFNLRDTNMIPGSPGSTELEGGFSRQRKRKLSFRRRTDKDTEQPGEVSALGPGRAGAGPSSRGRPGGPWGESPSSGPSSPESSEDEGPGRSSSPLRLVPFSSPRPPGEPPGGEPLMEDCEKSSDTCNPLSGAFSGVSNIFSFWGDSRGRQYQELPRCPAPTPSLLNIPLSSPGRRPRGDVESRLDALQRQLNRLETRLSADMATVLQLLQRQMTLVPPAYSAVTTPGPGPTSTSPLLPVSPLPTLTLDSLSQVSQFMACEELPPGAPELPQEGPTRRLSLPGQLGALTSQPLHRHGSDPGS
`Cc1cc2nn(-c3ccccc3)nc2cc1NC(=O)c1cccs1`: the “hERG current change (%, negative = inhibition) at 10uM” value was -6.84%. In the case of `COc1ccc(C(c2oc(CO)cc(=O)c2O)c2oc(CO)cc(=O)c2O)cc1OC` it was 14.3%. `Cc1ccc(OCC(=O)N2c3ccccc3CC2C)c([N+](=O)[O-])n1` (stereo not shown): the “hERG current change (%, negative = inhibition) at 10uM” value was found to be 3.51%. Regarding `COc1ccc(Cc2nnc(SCC(=O)NCc3ccco3)o2)cc1`, the “hERG current change (%, negative = inhibition) at 10uM” value was found to be 8.75%. Regarding `Cc1cc(C(F)(F)F)cc(NNC(=O)NC(=O)c2c(F)cccc2Cl)n1`, the “hERG current change (%, negative = inhibition) at 10uM” value was -14.1%.

Regarding `CCOc1ccc(C(=O)NNC(=O)CN2C(=O)NC3(CCCC3)C2=O)cc1`, the “hERG current change (%, negative = inhibition) at 10uM” value is reported as -5.43%. In the case of `Clc1ccc(CSc2snnc2-c2ccccc2)cc1` it was 2.46%.

Regarding `COc1cccc(CNC(=O)COC(=O)CN2C(=O)NC3(CCCCC3C)C2=O)c1` (stereo not shown), the “hERG current change (%, negative = inhibition) at 10uM” value came to 2.13%.

Take `Cc1cc(NC(=O)CCC(=O)N(c2cccc(F)c2)C(C(=O)NC2CCCC2)c2ccc(C)o2)no1` (stereo not shown): the “hERG current change (%, negative = inhibition) at 10uM” value worked out at 13.9%.

With `O=C(Oc1c(-c2ccccc2)c(=O)n2c3c(cccc13)CC2)c1ccc(F)cc1`, the “hERG current change (%, negative = inhibition) at 10uM” value was determined as 10.4%. The value for `CCOC(=O)C1CCCN(C(=O)CN(c2ccc(OC)cc2)S(=O)(=O)c2c(C)noc2C)C1` (stereo not shown) was -4.08%; that for `Cc1ccc(C(=O)NC2CCCCCC2)cc1S(=O)(=O)N1CCOCC1` was -26.5%. Turning to `COc1ccc(C)cc1S(=O)(=O)N(C)CC(=O)N1CCN(c2ccccc2)CC1`, the “hERG current change (%, negative = inhibition) at 10uM” value is listed as -41.3%. In the case of `COc1ccc(CCNC(=O)c2cnc3ccccc3n2)cc1`, the “hERG current change (%, negative = inhibition) at 10uM” value was determined as 9.44%.

Take `Cl.c1ccc(CSc2nnc(-c3cccnc3)o2)cc1`: the “hERG current change (%, negative = inhibition) at 10uM” value is given as -34.1%. Take `O=C(CSc1nnnn1C1CCCCC1)NCc1cccc(C(=O)O)c1`: the “hERG current change (%, negative = inhibition) at 10uM” value is reported as 1.79%. Take `CC(NS(=O)(=O)c1ccc(OCC(=O)N2CCOCC2)c(Cl)c1)c1ccccc1` (stereo not shown): the “hERG current change (%, negative = inhibition) at 10uM” value is listed as -0.661%. On to `O=S(=O)(c1cccs1)N1CCN(c2ccnc3cc(Cl)ccc23)CC1`, for which the “hERG current change (%, negative = inhibition) at 10uM” value was -68.4%. In the case of `COc1ccc(OCCCC(=O)NNC(=O)c2ccncc2)cc1`, the “hERG current change (%, negative = inhibition) at 10uM” value was 2.97%. Consider `CN(Cc1ccccc1)C(=O)C1CCN(S(=O)(=O)c2cccc3nonc23)CC1`, for which the “hERG current change (%, negative = inhibition) at 10uM” value was -18.8%. In the case of `COc1ccc2c(c1)C(=O)/C(=C/C=C/c1ccccc1)CC2` it was 20.4%; in that of `CCN(CC(=O)Nc1cc(Cl)ccc1C)C(=O)c1cc(S(=O)(=O)N2CCCCCC2)ccc1OC`, -14.7%; in that of `COc1cc(C(=O)O/N=C2\C=CC(=O)C=C2C)cc(OC)c1OC`, -1.85%.

With `COc1cc(C(c2nnnn2C2CCCC2)N2CCN(C)CC2)cc(OC)c1OC.Cl` (stereo not shown), the “hERG current change (%, negative = inhibition) at 10uM” value came out at 13.9%. The value for `Cc1ccc(N2CC(C(=O)Nc3ccccc3N3CCCC3)CC2=O)cc1` (stereo not shown) was -3.38%. In the case of `O=[N+]([O-])c1cc(S(=O)(=O)NCCN2CCOCC2)ccc1Sc1nnnn1-c1ccccc1` it was -24.6%.

With `COc1ccc(OC)c(NC(=O)C(CCS(C)(=O)=O)NC(C)=O)c1` (stereo not shown), the “hERG current change (%, negative = inhibition) at 10uM” value is on record as 10.4%. In the case of `CC(=O)CSc1nnc(-c2ccncc2)n1C` it was 29.9%. `Cc1ccc(-c2csc(NC(=O)Cc3ccc(F)cc3)n2)o1`: the “hERG current change (%, negative = inhibition) at 10uM” value stood at 23.6%.

As to `COc1ccc(-c2oc3ccccc3c(=O)c2OC(=O)c2ccc(C)cc2)cc1`, the “hERG current change (%, negative = inhibition) at 10uM” value was 14.1%. For the compound `COc1ccc(-c2cc(C#N)nc(N3CCN(c4ccccc4)CC3)n2)cc1`, the “hERG current change (%, negative = inhibition) at 10uM” value was 3.41%. The value for `CCC(=O)N1CCN(c2ccc(NC(=O)c3cc4ccccc4o3)cc2)CC1` was -23.3%. In the case of `CCOC(=O)Cn1nc(C)n(-c2cccc(Cl)c2)c1=O` it was 12.8%. For `CC1CN(C(=O)c2cccc(S(=O)(=O)Nc3ccccc3Cl)c2)CC(C)O1` (stereo not shown), the “hERG current change (%, negative = inhibition) at 10uM” value was 19.5%. In the case of `COc1cccc(NC(=O)CCc2ccccc2)c1` it was -12%; in that of `NC(=O)C1CCN(C(=O)CN(c2ccc3c(c2)OCCO3)S(=O)(=O)c2ccccc2)CC1`, -18%; in that of `COCc1cc(=O)[nH]c(SC)n1`, 7.44%.

As for `COc1ccc(N(C(=O)c2cccnc2)S(=O)(=O)c2cccs2)cc1`, the “hERG current change (%, negative = inhibition) at 10uM” value is -12.3%. For the compound `Cc1ccc2cc(CN(CCN3CCCC3)C(=O)Nc3ccc(F)cc3)c(=O)[nH]c2c1C`, the “hERG current change (%, negative = inhibition) at 10uM” value is recorded as -70.7%.

Turning to `CCOc1cccc(/C=N/Nc2ccc(S(=O)(=O)N(CC)CC)cn2)c1O`, the “hERG current change (%, negative = inhibition) at 10uM” value is given as 6.79%. For `CC(=O)NC(=S)NNC(=O)c1ccc(Br)cc1`, the “hERG current change (%, negative = inhibition) at 10uM” value amounted to 15.4%.

`CCC(C)NC(=O)c1ccc(NC(=O)C2=C(C)OCCS2)cc1` (stereo not shown): the “hERG current change (%, negative = inhibition) at 10uM” value turned out to be 23.4%. The value for `CN(c1ccccc1)S(=O)(=O)c1ccc(NC(=O)c2ccccc2)cc1` was -12.8%; that for `Cc1nn(CC(=O)NCC(C)c2ccccc2)c(=O)c2cccn12` (stereo not shown) was 13.4%. On to `CC1CN(S(=O)(=O)c2cccc(C(=O)NCc3ccc4c(c3)OCO4)c2)CC(C)O1` (stereo not shown), for which the “hERG current change (%, negative = inhibition) at 10uM” value was -25.2%. Regarding `CN(C)c1ccccc1C(=O)N1CCCC(Nc2ccc(F)cc2)C1` (stereo not shown), the “hERG current change (%, negative = inhibition) at 10uM” value is given as -23.7%. In the case of `CC(C)c1ccc(C(CC(=O)O)N2Cc3ccccc3C2=O)cc1` (stereo not shown) it was 7.11%; in that of `N#C/C(=C\c1cn(-c2ccccc2)nc1-c1ccccc1)S(=O)(=O)c1ccccc1`, 4.99%; in that of `O=[S@]1Oc2ccccc2-c2ccccc21`, 7.82%. `C/C(=N\NC(=S)NCc1ccccc1)c1ccco1`: the “hERG current change (%, negative = inhibition) at 10uM” value is -17.4%.

For the compound `Cc1ccc(S(=O)(=O)NCc2csc(-c3cccs3)n2)cc1`, the “hERG current change (%, negative = inhibition) at 10uM” value was 5.86%.

As to `Cc1nn(Cc2cccc(C(=O)Nn3cc([N+](=O)[O-])cn3)c2)c(C)c1[N+](=O)[O-]`, the “hERG current change (%, negative = inhibition) at 10uM” value worked out at 4.46%.

As to `Cc1cc(Br)ccc1SCC(=O)OCC(=O)Nc1ccccc1C#N`, the “hERG current change (%, negative = inhibition) at 10uM” value came to 13.1%. As for `CN1C2C=C3C(C#N)=C(N)C(C#N)(C#N)[C@@H](c4ccc(Cl)cc4)[C@@H]3C1CC2` (stereo partly shown), the “hERG current change (%, negative = inhibition) at 10uM” value is listed as -16.6%. `CCOC(=O)Cc1ccc(NC(=O)c2ccccc2Br)cc1`: the “hERG current change (%, negative = inhibition) at 10uM” value is -7.9%.

For the origin of these results see publication PMC4336329 (PLoS ONE, 2015).
